# Assay results: PubChem BioAssay AID602179 (National Center for Advancing Translational Sciences (NCATS), 2012)
# Screen size: about 390,000 compounds; about 360 (0.092%) were called active. Inconclusive means that the source gave no clear call. Such entries were picked first, then a sample of the others. Calls follow the shape of the dose curve; as a rule, active = well fitted inhibition curve with a large enough effect; inconclusive = small, poorly fitted or top-dose-only effect; inactive = no such curve, though single readings can be large or run the other way. Where the call is inconclusive, the potency comes from a doubtful curve fit. Some compounds were tested as several samples or in several runs, with calls that do not always agree.
# Target: Isocitrate dehydrogenase [NADP] cytoplasmic (Homo sapiens) (UniProt O75874)
# Experiment: qHTS for Inhibitors of mutant isocitrate dehydrogenase 1 (IDH1): qHTS; also: nearly all actives have a fitted effect of over 65% in size
# Conditions: IDH1-R132H enzyme, NADPH consumption, diaphorase/resazurin fluorescence; series mostly up to 76.6 µM; activity change, negative = inhibition: at the top concentration
# Method in brief: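 IDH1-R132H (0.5 ug/mL) preincubated 30 min with compound, then NADPH (0.016 mM) and alpha-KG (2 mM) added; 80 min at RT, pH 7.5. Remaining NADPH coupled via diaphorase/resazurin to fluorescence (540/590 nm); concentration-response curves normalized to no-enzyme control.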
# % is scaled to controls: 0 for no effect and ±100 for the full control effect; potency is read from the fitted curve at half-maximal effect; tags tell the direction and shape of the fitted curve.
SMILES,Potency,"activity change, negative = inhibition"
COc1ccc(CN2C(=O)/C(=C/c3ccncc3)SC2=S)cc1,"inconclusive: 58.5 µM [inhibitor, single point]",–
Cc1ccc(C)c(Sc2ccc(S(=O)(=O)Nc3ccc(C(=O)O)cc3)cc2)c1,"inconclusive: 58.5 µM [inhibitor, single point]",–
Cc1cccc(N2CCN(C(=O)C3CCN(S(=O)(=O)c4c(C)noc4C)CC3)CC2C)c1 (configuration not stated),inactive,–
Cc1ccc(C(C(=O)NC2CCCCC2)N(Cc2ccco2)C(=O)Cc2c[nH]c3ccccc23)o1 (configuration not stated),"inconclusive: 11.7 µM [inhibitor, full curve]",–
COc1cc2c3nnc(-c4ccc(F)cc4)c-3cn(Cc3ccc(F)cc3)c2cc1OC,"inconclusive: 50.1 µM [inhibitor, single point]",–
Cc1ccc(C)c(Sc2ccc(NC(=O)CCl)cc2)c1,"inconclusive: 52.1 µM [inhibitor, partial curve]",–
CC(=O)NS(=O)(=O)c1ccc(N=c2ssc3c2-c2ccc(C)cc2NC3(C)C)cc1,"inconclusive: 58.5 µM [inhibitor, single point]",–
CCC1CCCCN1c1nc2c(C=O)c(C)nn2c2ccccc12 (configuration not stated),"inconclusive: 44.7 µM [inhibitor, partial curve, poor fit]",–
O=C(CCc1nc2ccccc2c(=O)[nH]1)NCCN1C(=O)S/C(=C\c2ccc(Cl)cc2Cl)C1=O,"inconclusive: 44.7 µM [inhibitor, single point]",–
Cc1ccc(NC(=O)/C=C/c2ccc([N+](=O)[O-])s2)c(C)c1,–,inactive: 7.29%
COc1cc2c(cc1OC)C(c1ccc(-c3ccc(Cl)c(Cl)c3)o1)=NCC2,"inconclusive: 36.9 µM [inhibitor, partial curve, poor fit]",–
CCCn1c(NC(=O)c2ccc([N+](=O)[O-])o2)nc2ccccc21,–,inactive: 5.67%
CC(C)(C)c1ccc(Cn2nnc3c(=O)[nH]c(C4CCN(C(=O)c5ccco5)CC4)nc32)cc1,"inconclusive: 63.1 µM [inhibitor, single point]",–
CC(=O)Nc1ccc(Nc2nc(C)c([N+](=O)[O-])c(N(C)c3ccccc3)n2)cc1,"inconclusive: 70.8 µM [inhibitor, single point]",–
C=C1CC(Cn2cc(Br)c(=O)[nH]c2=O)(c2ccc(-c3ccccc3)cc2)OC1=O (configuration not stated),"inconclusive: 52.1 µM [inhibitor, single point]",–
CC1(C)CC(=O)c2sc(NS(=O)(=O)Cc3ccccc3)nc2C1,–,inactive: 5.17%
CCc1ccc(C2=CC(c3cccc(OC)c3OC)n3c(nc4ccccc43)N2)cc1 (configuration not stated),"inconclusive: 12.6 µM [inhibitor, full curve, poor fit]",–
CC(=O)Oc1cccc2c1C(=O)c1c(OC(C)=O)cc(C(=O)O)cc1C2=O,"inconclusive: 50.1 µM [inhibitor, single point]",–
CC1=C(C#N)c2nc(N)c(C#N)c(C)c2/C1=C\c1ccc(-c2ccccc2C(=O)O)o1,"inconclusive: 52.1 µM [inhibitor, partial curve]",–
O=C(O)CN1C(=O)/C(=C\c2cc(Br)ccc2OCc2ccc(Cl)cc2)SC1=S,"inconclusive: 58.5 µM [inhibitor, single point]",–
O=C(/C=C/Nc1ccc(F)c(F)c1)c1ccc(Br)cc1,–,inactive: 2.88%

SMILES,Potency,"activity change, negative = inhibition"
CN(C)C(=O)N1CCN(S(=O)(=O)c2ccc3ccccc3c2)CC1,–,inactive: -9.76%
CNc1nc(Nc2ccc(C)c(Cl)c2)c2cnn(C)c2n1,active: 29.3 µM,–
Cc1cc(C)cc(N(CC(=O)Nc2ccc(C(F)(F)F)cc2)S(=O)(=O)c2c(C)[nH]c(=O)[nH]c2=O)c1,active: 10.4 µM,–
Cn1c(C(=O)N2CCN(c3ccc(Cl)cc3)CC2)cc2c(=O)[nH]c3ccccc3c21,–,inactive: -0.658%
CCOc1ccc(N2C(=O)/C(=C\c3ccccc3OC)S(=O)(=O)C2c2cccc([N+](=O)[O-])c2)cc1 (configuration not stated),–,inactive: 1.28%
CCC(C)Sc1cc(C)c(C#N)c2nc3ccccc3n12 (configuration not stated),"inconclusive: 52.1 µM [inhibitor, single point]",–
Cc1cccc(NC(c2cccc(Cl)c2)c2ccc3cccnc3c2O)n1 (configuration not stated),"inconclusive: 50.1 µM [inhibitor, partial curve, poor fit]",–
Cc1nc2ccc(NC(=O)c3cccs3)cc2s1,–,inactive: 11.5%
COc1cc2c(O)c3c(c(-c4ccc5c(c4)OCO5)c2cc1OC)C(=O)OC3,"inconclusive: 32.9 µM [inhibitor, partial curve]",–
COc1cc(/C=C/C(=O)Nc2cc(C(F)(F)F)ccc2Cl)cc(OC)c1OC,–,inactive: 3.97%
COc1ccc(Br)cc1/C=N/NC(=O)c1nc(-c2ccccc2)n2c1CCCCC2,"inconclusive: 8.26 µM [inhibitor, partial curve, poor fit]",–
CC(c1ccccc1)C1CC(=O)N(Cc2ccco2)C1=O (configuration not stated),–,inactive: -1.74%
O=C(Cn1cc(SCc2cccc(F)c2)c2ccccc21)N1CCOCC1,–,inactive: -8.22%
O=C(/C(=C/c1cccnc1)n1ccnc1)c1ccc(Cl)cc1Cl,"inconclusive: 58.5 µM [inhibitor, single point]",–
O=C(CCl)Nc1cccc(CP(=O)(c2ccccc2)c2ccccc2)c1,"inconclusive: 52.1 µM [inhibitor, single point]",–
CC[C@]12c3[nH]c4ccc(Cl)cc4c3CCN1C(=O)[C@@H](CC(=O)NCCC1=CCCCC1)C[C@@H]2C(=O)N1CCN(C(=O)c2ccco2)CC1,"inconclusive: 44.7 µM [inhibitor, partial curve, poor fit]",–
c1ccc2c(N3CCCCCC3)nc(-c3ccncc3)nc2c1,"inconclusive: 52.1 µM [inhibitor, partial curve, poor fit]",–
Cc1ccc(OC(C)C(=O)N2CCN(c3ccccn3)CC2)cc1 (configuration not stated),–,inactive: -7.6%
O=C(CN(c1cccc(Br)c1)S(=O)(=O)c1ccccc1)N1CCc2ccccc2C1,"inconclusive: 50.1 µM [inhibitor, single point]",–
Cc1nc(-c2ccccc2)sc1CCNC(=O)c1ccco1,–,inactive: -11.6%
CCN(C(=O)Cn1ncc2c1-c1cc(C)ccc1OC2)c1cc(Cl)ccc1OC,"inconclusive: 50.1 µM [inhibitor, single point]",–
